Assay results as given in the supplement of paper PMC10441789.
The other results are listed elsewhere or left out. Antibody binding of pooled human sera (four to six donors per pool; dilution not stated) to peptides of the Trypanosoma cruzi antigen TSSA on microarrays. Quantile-normalised fluorescence in arbitrary units, mean of duplicate arrays; higher = more binding. No active / inactive call. The uninfected pools are read here as the healthy donors of the same country. The strongest signals lie near the top of the scale (about 60,000).

Assays:
Assay in all cases: antibody binding signal (normalised fluorescence) (arbitrary fluorescence units); higher = stronger serum antibody binding to peptide
[1] = tested on: pooled sera of chronic Chagas disease patients, Argentina
Procedure: (§1)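 Microarray of 15-residue peptides over residues 30-55 of Trypanosoma cruzi TSSAII, each with 1 to 10 substitutions at naturally variable positions, probed with one serum pool per country.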

[2] = tested on: pooled sera of chronic Chagas disease patients, Bolivia
Procedure: as §1

[3] = tested on: pooled sera of chronic Chagas disease patients, Brazil
Procedure: as §1

[4] = tested on: pooled sera of chronic Chagas disease patients, Colombia
Procedure: as §1

[5] = tested on: pooled sera of chronic Chagas disease patients, Mexico
Procedure: as §1

[6] = tested on: pooled sera of chronic Chagas disease patients, USA
Procedure: as §1

[7] = tested on: pooled sera of uninfected people, Argentina
Procedure: as §1

[8] = tested on: pooled sera of uninfected people, Bolivia
Procedure: as §1

[9] = tested on: pooled sera of uninfected people, Brazil
Procedure: as §1

[10] = tested on: pooled sera of uninfected people, Mexico
Procedure: as §1

[11] = tested on: pooled sera of uninfected people, USA
Procedure: as §1

Row | Sequence | antibody binding signal [1] | antibody binding signal [2] | antibody binding signal [3] | antibody binding signal [4] | antibody binding signal [5] | antibody binding signal [6] | antibody binding signal [7] | antibody binding signal [8] | antibody binding signal [9] | antibody binding signal [10] | antibody binding signal [11]
1 | GTENKPAAGEAPSQP | 41800 | 26700 | 44300 | 3430 | 6880 | 16400 | 311 | 1360 | 274 | 134 | 102
2 | KTAAGEAPSPPGASS | 457 | 380 | 1890 | 335 | 1210 | 4540 | 241 | 187 | 179 | 94.8 | 181
3 | PSGTEKKTAAGETPS | 9280 | 2800 | 4290 | 3030 | 3320 | 3930 | 316 | 390 | 178 | 319 | 462
4 | GTDKKTAAGGTPSQS | 425 | 238 | 173 | 9040 | 426 | 1880 | 211 | 164 | 685 | 320 | 118
5 | SGTENKTAAGETPSQ | 33600 | 8130 | 14300 | 542 | 459 | 4200 | 476 | 381 | 179 | 215 | 201
6 | KEKKPATGEAPSQPG | 40600 | 11600 | 43100 | 173 | 221 | 30500 | 724 | 242 | 158 | 99.7 | 369
7 | DKKPATGGAPSPPGA | 1400 | 942 | 1200 | 2580 | 997 | 2480 | 447 | 996 | 159 | 153 | 156
8 | GTDNKTATGGTPSQP | 395 | 1450 | 27400 | 2430 | 419 | 372 | 466 | 547 | 1760 | 2250 | 147
9 | DKKAAAGETPSQPGA | 808 | 1570 | 31300 | 360 | 240 | 2330 | 109 | 327 | 211 | 186 | 166
10 | SGKDNKTATGGTPSQ | 904 | 396 | 694 | 3130 | 839 | 2260 | 324 | 152 | 148 | 106 | 197
11 | STPPSGKEKKTATGG | 15400 | 299 | 479 | 2960 | 12200 | 1030 | 299 | 236 | 103 | 109 | 159
12 | GTENKAATGGTPSPP | 39200 | 1350 | 718 | 980 | 1430 | 734 | 196 | 355 | 284 | 195 | 89.3
13 | GKDNKPAAGGTPSPS | 845 | 254 | 733 | 1760 | 1920 | 1680 | 197 | 390 | 338 | 107 | 144
14 | GTDNKAATGETPSPP | 4090 | 6020 | 35400 | 227 | 239 | 13400 | 122 | 633 | 1120 | 165 | 1100
15 | TENKPATGGTPSQSG | 44700 | 1590 | 3340 | 326 | 1290 | 515 | 430 | 835 | 611 | 405 | 223
16 | GKDKKAAAGEAPSQP | 1120 | 2830 | 29900 | 1070 | 849 | 7040 | 121 | 88.2 | 82.8 | 71 | 74.8
17 | PSGTENKPAAGETPS | 46900 | 34700 | 43200 | 1560 | 4180 | 14000 | 1610 | 1670 | 468 | 460 | 519
18 | GTEKKTAAGGTPSPS | 684 | 183 | 881 | 10300 | 617 | 2210 | 137 | 388 | 859 | 207 | 210
19 | TDNKAAAGGTPSPPG | 234 | 146 | 223 | 2770 | 209 | 863 | 113 | 218 | 962 | 131 | 95.5
20 | SGTENKPAAGEAPSQ | 45300 | 24700 | 38800 | 517 | 925 | 18400 | 559 | 1230 | 207 | 172 | 116
21 | GKDKKAATGGAPSQP | 458 | 233 | 1400 | 651 | 1170 | 805 | 201 | 132 | 70.8 | 98.2 | 83.4
22 | PSGKENKTATGEAPS | 16000 | 13800 | 16700 | 3250 | 4770 | 21900 | 6100 | 3240 | 291 | 575 | 212
23 | GKENKAATGEAPSPS | 28300 | 15800 | 33500 | 14700 | 10900 | 29000 | 444 | 184 | 125 | 128 | 170
24 | GKEKKPATGEAPSQP | 43500 | 23200 | 43500 | 9060 | 14500 | 33700 | 869 | 304 | 131 | 110 | 373
25 | NKTAAGGAPSQPGAS | 259 | 656 | 7510 | 5190 | 798 | 453 | 772 | 1050 | 461 | 301 | 946
26 | TSSTPPSGKEKKPAT | 17800 | 480 | 557 | 211 | 34900 | 301 | 642 | 675 | 101 | 92.3 | 191
27 | TISTPPSGTDNKTAT | 33000 | 42900 | 48400 | 1100 | 11400 | 15600 | 854 | 656 | 1700 | 252 | 291
